Source: the supplement of paper PMC10126150
Sequences with one replicate were seen in a single cluster, so their values are uncertain.

Test system: ATP
Test: switch fluorescence ratio, 500 uM ATP over buffer (Cy3 cluster intensity, sum of 5 cycles each) (fold (ratio)); higher = stronger signal-on switching upon ATP binding; sequences stand for … in TCGTCGGCAGCGTCAGATGTGTATAAGAGACAGTTTTTTTTTTTTTTTTTTTTTTTTT…TC
Details: aptamer strand: ATP DNA aptamer (quencher-CACCTGGGGGAGTATTGCGGAGGAAGG + anchor), 100 nM annealed; ATP concentration: 500 uM; one replicate
In short: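 Imaging in selection buffer was followed by imaging after 15 min with 500 uM ATP at 22 °C, for Cy3-labelled switching-strand clusters annealed to 100 nM quencher-labelled ATP aptamer on a modified Illumina MiSeq flow-cell. Five of these buffer/ATP cycles ran, separated by NaOH stripping and re-annealing. The fluorescence ratio per cluster is summed target-cycle over summed buffer-cycle Cy3 intensity, averaged per switch-domain sequence; clusters outside 100-1000 RFU were removed.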
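Further: ATP exposure 15 min at 22 °C before imaging.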

## GGGTTTTACC
  switch fluorescence ratio: 0.954

## CGGCCTAGGC
  switch fluorescence ratio: 1

## GCGCGGCGTG
  switch fluorescence ratio: 0.962

## ATCGAGATTT
  switch fluorescence ratio: 0.98

## GCTGGTAGTC
  switch fluorescence ratio: 1.04

## TCGTGTCCCC
  switch fluorescence ratio: 1.07

## GTAAGAAAAG
  switch fluorescence ratio: 0.999

## CGAGGGGCGA
  switch fluorescence ratio: 1.03

## TCGTTTCGGC
  switch fluorescence ratio: 1.01

## TACGCACGT
  switch fluorescence ratio: 1.42

## TTAGAAACTG
  switch fluorescence ratio: 0.926

## GCTCACTACA
  switch fluorescence ratio: 1.08

## CGTTTATAT
  switch fluorescence ratio: 1.02

## AAGGGCTCGC
  switch fluorescence ratio: 0.976

## TTACATGAGG
  switch fluorescence ratio: 0.964

## CGGACAGGAC
  switch fluorescence ratio: 1.47

## GCTATATACT
  switch fluorescence ratio: 1.21

## CACACGGGAC
  switch fluorescence ratio: 1.43

## TGCTTAAATC
  switch fluorescence ratio: 1.16

## CCCCATGGGT
  switch fluorescence ratio: 6.17

## ATGCTACTCA
  switch fluorescence ratio: 1.1

## CCGGTACCCA
  switch fluorescence ratio: 1.06

## TCGTGTGATC
  switch fluorescence ratio: 1.08

## TTGAAGACGA
  switch fluorescence ratio: 0.964

## CGGGGTTAAC
  switch fluorescence ratio: 0.991

## CGGTCGTGTG
  switch fluorescence ratio: 0.958

## TTCGAACGGC
  switch fluorescence ratio: 1.01

## ATGTTAAACA
  switch fluorescence ratio: 1.03

## GAACCATGAT
  switch fluorescence ratio: 0.946

## TGTACTCTCA
  switch fluorescence ratio: 1.01

## CTCTGTGAGA
  switch fluorescence ratio: 1.03

## TTCAACGTTT
  switch fluorescence ratio: 0.958

## TCCTCAGAGT
  switch fluorescence ratio: 1.16

## AAGGAGCAG
  switch fluorescence ratio: 1.03

## CTGCTAATTA
  switch fluorescence ratio: 0.974

## TTCATGAATC
  switch fluorescence ratio: 0.994

## GATTGAGTGC
  switch fluorescence ratio: 0.904

## CGGCGGCCAC
  switch fluorescence ratio: 0.963

## GCAATTTCGG
  switch fluorescence ratio: 1.11

## AAACGCCTGT
  switch fluorescence ratio: 1.01

## TTGGTAATAC
  switch fluorescence ratio: 1.09

## CGGTATACGA
  switch fluorescence ratio: 1.1

## ATGGTATTGC
  switch fluorescence ratio: 1.04

## GGAATATGAG
  switch fluorescence ratio: 1.08

## TAGTGTTCGA
  switch fluorescence ratio: 1.02

## AATCACTGGG
  switch fluorescence ratio: 0.986

## TGAAATTGTC
  switch fluorescence ratio: 1.04

## GCGGATTTGG
  switch fluorescence ratio: 0.992

## ACTGCCCTGG
  switch fluorescence ratio: 2.03

## ACTAAAGTCG
  switch fluorescence ratio: 1.05

## AGAGAGAACA
  switch fluorescence ratio: 0.982

## TCCTATCG
  switch fluorescence ratio: 0.997

## GATTGCACAG
  switch fluorescence ratio: 1.04

## CGGAATGTGG
  switch fluorescence ratio: 0.943

## CAATGTTGGG
  switch fluorescence ratio: 1.06

## GCGCAGACCG
  switch fluorescence ratio: 0.998

## ATTATCGCTC
  switch fluorescence ratio: 1.45

## TTAATACATA
  switch fluorescence ratio: 1.07

## CAGTGGCATG
  switch fluorescence ratio: 0.994

## TGAGGTAGAC
  switch fluorescence ratio: 1.04

## TTTAGTATTG
  switch fluorescence ratio: 0.997

## CTCTTATTTT
  switch fluorescence ratio: 1.01

## GCATTGCCTT
  switch fluorescence ratio: 0.978

## CCAAGTTATT
  switch fluorescence ratio: 0.994

## AATCCTGATA
  switch fluorescence ratio: 1.03

## TTCACTTCGA
  switch fluorescence ratio: 0.976

## AGTGCTGGAT
  switch fluorescence ratio: 1.04

## GCACCTTGGA
  switch fluorescence ratio: 1.03

## GATACATCTA
  switch fluorescence ratio: 0.992

## GTCTTCGCTG
  switch fluorescence ratio: 1.05

## CGGCTAGGGA
  switch fluorescence ratio: 0.982

## GCATCACCGC
  switch fluorescence ratio: 1.15

## GTCTTAAAGT
  switch fluorescence ratio: 1.03

## GGAACCTAG
  switch fluorescence ratio: 0.994

## GTAGATTGTT
  switch fluorescence ratio: 0.982

## GGTTCATAAA
  switch fluorescence ratio: 0.968

## TTCCCCGTCT
  switch fluorescence ratio: 0.915

## TTTCGATTAA
  switch fluorescence ratio: 0.984

## TCGATTAAAG
  switch fluorescence ratio: 1.02

## AAAGGTGCAT
  switch fluorescence ratio: 2.38

## CTCGTGATGG
  switch fluorescence ratio: 1.02

## CGAGGGCGAA
  switch fluorescence ratio: 1.03

## GTGGATTACT
  switch fluorescence ratio: 1.02

## CCGCGCAGCT
  switch fluorescence ratio: 1.05

## CGAGGCACTG
  switch fluorescence ratio: 1.08

## GATTTTAACC
  switch fluorescence ratio: 0.98

## ACCCCGATCC
  switch fluorescence ratio: 1.03

## TACTTGTGTC
  switch fluorescence ratio: 1.05

## ACGCATGTAT
  switch fluorescence ratio: 1.03

## AGGCTTTAA
  switch fluorescence ratio: 1.02

## CCACTTAAAG
  switch fluorescence ratio: 1.01

## TATTTAAATT
  switch fluorescence ratio: 0.968

## CACTGCTGG
  switch fluorescence ratio: 1.02

## TCCAAGGGAA
  switch fluorescence ratio: 1.08

## AGTCGGAAGT
  switch fluorescence ratio: 0.964

## TTAAATACCG
  switch fluorescence ratio: 0.983

## GGACATCAGG
  switch fluorescence ratio: 1

## CTAGTGCAGT
  switch fluorescence ratio: 1.01

## GCCTTCTTGC
  switch fluorescence ratio: 0.981

## ACGGGTTGCT
  switch fluorescence ratio: 1.01

## CTGCTCGCTA
  switch fluorescence ratio: 2.49

## TTCCGCTGGC
  switch fluorescence ratio: 1.28

## GAAGCAGAGG
  switch fluorescence ratio: 1.23

## AAGGTCTCAA
  switch fluorescence ratio: 0.967

## TATCTCGCAG
  switch fluorescence ratio: 1.09

## AGTGGACAT
  switch fluorescence ratio: 0.983

## TTAAAAGTCC
  switch fluorescence ratio: 1.1

## CAGTGGGCAC
  switch fluorescence ratio: 0.964

## ATCGTCCTGG
  switch fluorescence ratio: 1.01

## TAGCATACCG
  switch fluorescence ratio: 1.06

## ATGTCCTCAT
  switch fluorescence ratio: 0.943

## AAGGTGCAAA
  switch fluorescence ratio: 1.03

## TTTTCGGACC
  switch fluorescence ratio: 1.06

## CCACGGACAT
  switch fluorescence ratio: 1.48

## GGTATCAATC
  switch fluorescence ratio: 0.966

## TATACAAGAA
  switch fluorescence ratio: 1.03

## CGCTGCATCT
  switch fluorescence ratio: 1.1

## CATTAAGGAT
  switch fluorescence ratio: 0.995

## CTAAACTT
  switch fluorescence ratio: 1.05

## GGACTATCCG
  switch fluorescence ratio: 1.02

## CTCTAGGTCA
  switch fluorescence ratio: 1.01

## GAGGGGCTAT
  switch fluorescence ratio: 0.977

## TATGTTAGGT
  switch fluorescence ratio: 0.969

## TCATTCTTAG
  switch fluorescence ratio: 0.995

## CTGAGGACCC
  switch fluorescence ratio: 0.939

## TTCATGCTGT
  switch fluorescence ratio: 0.991

## GGCCGTAAGG
  switch fluorescence ratio: 0.991

## TTTCATCATG
  switch fluorescence ratio: 0.985

## CATCAAAGAC
  switch fluorescence ratio: 1.58

## GGAAGTAGAA
  switch fluorescence ratio: 0.989

## GAATCCGGTA
  switch fluorescence ratio: 1.04

## CGCTGTAAAT
  switch fluorescence ratio: 1.03

## AGCCCGAGTA
  switch fluorescence ratio: 0.996

## CGAGAACCGC
  switch fluorescence ratio: 1.06

## CTACTCATGA
  switch fluorescence ratio: 0.976

## ACTAATAATT
  switch fluorescence ratio: 1

## CATCATTTGT
  switch fluorescence ratio: 1.01

## GCTCTTTACT
  switch fluorescence ratio: 1.05

## AACTCCTTAG
  switch fluorescence ratio: 1.03

## TACACACGGT
  switch fluorescence ratio: 1.41

## CATCTAGTAT
  switch fluorescence ratio: 1.03

## AGTCTCCTCT
  switch fluorescence ratio: 0.969

## TGGGAACTTT
  switch fluorescence ratio: 1.12

## CTTAGAGGCA
  switch fluorescence ratio: 0.961

## AGTGCGCCAG
  switch fluorescence ratio: 0.994

## CGTACGAT
  switch fluorescence ratio: 1.01

## ATCTTATAAG
  switch fluorescence ratio: 1.02

## TTGCTTTTCC
  switch fluorescence ratio: 1.11

## TCGAAAATCC
  switch fluorescence ratio: 1.03

## TAATTTAGCC
  switch fluorescence ratio: 0.994

## TTTTACATTG
  switch fluorescence ratio: 0.988

## TGCCACTGCA
  switch fluorescence ratio: 1.03

## AGCAAAGGGT
  switch fluorescence ratio: 0.987

## GGGTATAGAT
  switch fluorescence ratio: 1.01

## GGCAGACGAG
  switch fluorescence ratio: 1.02

## TGTGACGGG
  switch fluorescence ratio: 1.01

## AAAGCAACGA
  switch fluorescence ratio: 1.08

## GACCCTGTGA
  switch fluorescence ratio: 1.02

## CCTTCTGTA
  switch fluorescence ratio: 1.1

## GACCAACCTT
  switch fluorescence ratio: 1.42

## GGAGGGTTTC
  switch fluorescence ratio: 1.01

## TGTAAGACTG
  switch fluorescence ratio: 1.22

## AACGCAGATT
  switch fluorescence ratio: 1.13

## GCACAGAATG
  switch fluorescence ratio: 0.93

## AAGACTCCCA
  switch fluorescence ratio: 1.06

## ATAGAATTTT
  switch fluorescence ratio: 1

## CTTTAGTTGT
  switch fluorescence ratio: 0.977

## TATCGGTC
  switch fluorescence ratio: 1.03

## CTAACCGGT
  switch fluorescence ratio: 1.01

## CCATGGGTG
  switch fluorescence ratio: 1.56

## CATATCCTTG
  switch fluorescence ratio: 0.974

## TGTTGCGTAG
  switch fluorescence ratio: 1

## GGATTACACC
  switch fluorescence ratio: 1.02

## TGCTACGAAC
  switch fluorescence ratio: 1.6

## GGTACCCAAG
  switch fluorescence ratio: 1.01

## TCTTAGTTCT
  switch fluorescence ratio: 0.979

## ATGAATCGGG
  switch fluorescence ratio: 1.02

## AACATCCAGG
  switch fluorescence ratio: 1.69

## TCTTGGAAGG
  switch fluorescence ratio: 0.972

## TGTCAACAGC
  switch fluorescence ratio: 1.12

## TTACCGCACT
  switch fluorescence ratio: 3.08

## CCAAGTGATG
  switch fluorescence ratio: 1.04

## AATGCGTTGA
  switch fluorescence ratio: 1.04

## TATCATTCCA
  switch fluorescence ratio: 1.03

## GAAGAGCAGG
  switch fluorescence ratio: 1

## TCCCAACGGA
  switch fluorescence ratio: 1.06

## GGCTTGGTTG
  switch fluorescence ratio: 0.992

## GCGAGGATCT
  switch fluorescence ratio: 1.02

## AAGTTGGGA
  switch fluorescence ratio: 1

## AGTTGCTTTA
  switch fluorescence ratio: 0.953

## CCCAATTAAA
  switch fluorescence ratio: 1.02

## TCCTGCTCGT
  switch fluorescence ratio: 1.02

## CGGGCGACCG
  switch fluorescence ratio: 1.01

## TTGTCAAAAT
  switch fluorescence ratio: 1.06

## AGAGACGAGG
  switch fluorescence ratio: 1.01

## GTTTTAGCAA
  switch fluorescence ratio: 1.15

## ATTACTTG
  switch fluorescence ratio: 0.98

## AATAACGGCG
  switch fluorescence ratio: 0.958

## CAGCGGAAGT
  switch fluorescence ratio: 0.989

## ATAATGCCGT
  switch fluorescence ratio: 0.981

## TGGTTAGAGA
  switch fluorescence ratio: 1.03
